Reference: PMC4336329 (PLoS ONE, 2015)
The whole screen tested about 310,000 compounds, of which about 2,200 (0.71%) showed an effect of 50% or more. The effect is printed as a negative number. This is one part of the list.

Target: human ether-à-go-go-related gene (hERG) potassium channel (human, UniProt Q12809)
Assay: primary screen, population patch clamp on CHO cells stably expressing hERG

Chain of human ether-à-go-go-related gene (hERG) potassium channel (Q12809 whole entry, looked up): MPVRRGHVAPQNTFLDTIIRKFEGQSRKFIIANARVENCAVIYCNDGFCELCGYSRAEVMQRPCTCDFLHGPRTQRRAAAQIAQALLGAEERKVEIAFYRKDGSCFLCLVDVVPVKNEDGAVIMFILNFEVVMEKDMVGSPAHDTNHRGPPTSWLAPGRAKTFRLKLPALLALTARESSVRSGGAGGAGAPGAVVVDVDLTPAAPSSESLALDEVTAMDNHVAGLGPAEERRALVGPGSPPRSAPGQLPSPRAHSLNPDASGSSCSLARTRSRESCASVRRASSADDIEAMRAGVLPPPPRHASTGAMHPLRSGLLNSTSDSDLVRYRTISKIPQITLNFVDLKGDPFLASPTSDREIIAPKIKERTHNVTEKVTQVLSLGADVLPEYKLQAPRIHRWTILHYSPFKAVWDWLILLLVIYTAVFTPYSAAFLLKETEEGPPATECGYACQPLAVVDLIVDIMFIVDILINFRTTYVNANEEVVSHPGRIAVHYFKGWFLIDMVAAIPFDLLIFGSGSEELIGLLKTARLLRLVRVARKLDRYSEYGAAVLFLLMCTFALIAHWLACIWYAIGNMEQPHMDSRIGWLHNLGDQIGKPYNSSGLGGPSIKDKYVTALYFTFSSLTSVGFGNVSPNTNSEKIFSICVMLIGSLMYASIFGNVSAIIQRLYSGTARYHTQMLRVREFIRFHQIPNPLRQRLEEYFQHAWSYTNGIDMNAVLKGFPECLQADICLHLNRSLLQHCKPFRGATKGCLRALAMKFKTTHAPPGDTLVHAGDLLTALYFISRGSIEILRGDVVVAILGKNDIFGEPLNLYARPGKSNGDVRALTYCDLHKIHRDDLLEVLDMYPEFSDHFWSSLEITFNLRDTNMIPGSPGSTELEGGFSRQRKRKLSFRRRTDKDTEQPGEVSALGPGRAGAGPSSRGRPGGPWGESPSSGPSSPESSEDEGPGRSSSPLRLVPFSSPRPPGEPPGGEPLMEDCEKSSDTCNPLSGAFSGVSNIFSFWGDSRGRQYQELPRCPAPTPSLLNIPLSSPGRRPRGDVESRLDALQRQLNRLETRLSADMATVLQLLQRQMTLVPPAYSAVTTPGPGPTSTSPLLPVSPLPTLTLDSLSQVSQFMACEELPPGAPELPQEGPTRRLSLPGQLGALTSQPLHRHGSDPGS

Row | SMILES | hERG current change (%, negative = inhibition) at 1uM [%]
1 | O=C(NCC1CCN(C(=O)c2ccc([N+](=O)[O-])cc2)CC1)C(=O)Nc1ccccc1 | 5.27
2 | CCOc1ccc(/C=N/Nc2nncc(-c3ccccc3)n2)cc1OC | 3.8
3 | Cl.OC1(CNCc2ccccc2)C2CC3CC(C2)CC1C3 (centres unmarked) | 12.8
4 | O=C(OC(C(=O)Nc1cccc(C(F)(F)F)c1)c1ccccc1)C1CCCCC1 (centres unmarked) | 12.2
5 | O=C(NCc1ccccc1)c1ccc(OC2CSC2)cc1 | 18
6 | CCOc1ccc(NC(=O)CCn2c(=O)[nH]c3ccsc3c2=O)cc1 | 15.8
7 | CCC1(CC)Cc2ccccc2C(Nc2c(C)n(C)n(-c3ccccc3)c2=O)=N1 | 0.931
8 | Cn1c(N)c(C(=O)COC(=O)C2(c3ccc(Cl)cc3)CCCC2)c(=O)n(C)c1=O | 10.5
9 | Cc1ccc2nc(NCc3ccccc3)c(C#N)cc2c1 | -1.55
10 | CCC(=O)c1ccc(N2CCN(C(=O)c3cc([N+](=O)[O-])ccc3F)CC2)c(F)c1 | -4.67
11 | COc1ccc(Cc2nnc(SC)[nH]c2=O)cc1OC | 7.11
12 | O=c1[nH]c2ccc([N+](=O)[O-])cc2nc1/C=C(\O)c1ccccc1 | 10.5
13 | CCOC(=O)c1cc(S(=O)(=O)NC2CCN(C(=O)OCC)CC2)cn1C | -4
14 | CCCNC(=O)NC(=O)CSc1cccc(C(F)(F)F)c1 | 14.7
15 | COc1ccc(-n2nc(C(=O)NCC(=O)N3CCN(c4ccccn4)CC3)c3ccccc3c2=O)cc1Cl | 14.4
16 | Cc1ccc(NC(=S)/N=C(\N)Nc2nc(C)c3cc(C)c(C)cc3n2)cc1C | 8.63
17 | CCOc1cccc(N2C(=O)CC(=O)NC2=O)c1 | 5.45
18 | O=C(O)CSc1nnc(-c2ccccc2)c(-c2ccccc2)n1 | 15
19 | Cc1c(C(=O)c2ccc(F)cc2F)c2ccccn2c1CCC#N | 4.15
20 | CCOC(=O)/C(=C\c1ccccc1)C(=O)c1cc(C(C)=O)c(Nc2ccccc2)s1 | 4.18
21 | CC(C)N(Cc1ccccc1)C(=O)c1ccc2nsnc2c1 | 12.8
22 | COc1ccccc1NC(=O)N1CCCC1C(=O)NCCc1ccccc1 (centres unmarked) | 15.6
23 | COc1ccc(C)cc1Cn1nnc2ccccc21 | 9.02

Row | SMILES | hERG current change (%, negative = inhibition) at 1uM [%]
24 | COc1ccc(OC)c(C2=NOC(C(=O)NCC3CCCO3)C2)c1 (centres unmarked) | -2.41
25 | Cc1cc(Nc2ccc(F)cc2Cl)n2nc(C)nc2n1 | 6.43
26 | Cc1ccc2nc(C(Cl)(Cl)Cl)nc(N/N=C/c3ccncc3)c2c1 | 14.7
27 | Cn1c(CCNC(=O)c2ccco2)nc2cc(NC(=O)NC3CCCCC3)ccc21 | 1.45
28 | CCN(CC)S(=O)(=O)c1ccc2c(c1)N(CC(=O)NCc1ccccn1)C(=O)CO2 | 5.12
29 | COc1cccc(C(=O)COC(=O)C2CC(=O)N(c3ccc(Oc4ccccc4OC)cc3)C2)c1 (centres unmarked) | 4.19
30 | Cc1onc(-c2ccccc2Cl)c1C(=O)NCCN1CCOCC1 | 11.8
31 | CCCC1/C(=N/O)CC(c2ccccc2)NC1c1ccccc1 (centres unmarked) | 15
32 | CC(=O)n1cc(/C=N/NC(=O)c2sc(C)nc2C)c2ccccc21 | 19.9
33 | COC(=O)C1CC(O)CN1C(=O)NC1CCCCC1 (centres unmarked) | 9.8
34 | Cc1cc(C(=O)COc2ccc([N+](=O)[O-])cc2)c(C)n1C1CC1 | 5.93
35 | CCn1c(SCC(=O)c2ccc(Cl)cc2)nnc1-c1cccs1 | -1.74
36 | N#C/C(=C1\CCCN1)c1nc(-c2ccccc2)cs1 | -1.88
37 | Cn1cc(S(=O)(=O)N2CCN(c3ccc(F)cc3)CC2)c(=O)n(C)c1=O | 3.35
38 | COc1ccccc1NC(=O)N1CCOCC1 | 19
39 | OC(COc1ccc(Br)cc1)Cn1ccnc1 (centres unmarked) | 10.4
40 | Cc1c2c(nc3c(C(=O)NC4CCCC4)cnn13)CCCC2 | -2.53
41 | Cc1ccc(N(CC(=O)NCc2ccccc2)C(=O)c2csnn2)cc1 | 7.71
42 | COc1ccc(CC(=O)Nc2nnc(C)s2)cc1 | 11.2
43 | CCOc1ccc(CNC(=O)CCS(=O)(=O)Cc2ccc(C)cc2)cc1OC | 17.8
44 | C/C(=N\NC(=O)c1ccc(O)cc1)c1ccc2c(c1)OCCO2 | 7.64
45 | COc1ccc(N2CCN(CCCNC(=O)C3CCN(S(=O)(=O)N4CCOCC4)CC3)CC2)cc1 | -2.02
46 | COc1ccc(C2=Nc3ccc(C)cc3C(c3ccccc3)N2CC(=O)NN)cc1 (centres unmarked) | -9.94

Row | SMILES | hERG current change (%, negative = inhibition) at 1uM [%]
47 | Cc1nnc(SCCn2c(N3CC(C)CC(C)C3)nc3c2c(=O)[nH]c(=O)n3C)s1 (centres unmarked) | 7.87
48 | Cc1ccc(-n2ncc3c2CCCC3NC(=O)CSc2ccccn2)cc1C (centres unmarked) | 4.76
49 | S=C1NC2(CCCCC2)Nc2ccccc21 | 12.1
50 | COc1cccc(NC(=O)CN2C(=O)COc3ccc(C)cc32)c1 | 14.4
51 | Nc1ccc(C(=O)N/N=C/c2cn(Cc3cccc(F)c3)c3ccccc23)cc1 | 15.6
52 | COc1ccc(OC)c(NC(=O)CSc2nncc(=O)n2N)c1 | 13.9
53 | O=C(CCC1CCCC1)NNC(=O)c1ccccc1O | 12.5
54 | Cc1ccc(OCC(=O)NCc2ccc3c(c2)OCO3)c([N+](=O)[O-])n1 | -4.28
55 | Cc1c(NC(=O)CSc2nnc(COc3ccccc3)n2-c2ccccc2)c(=O)n(-c2ccccc2)n1C | 13.7
56 | O=C(Nc1ccc(-c2cnco2)cc1)c1ccc(F)cc1F | 10.4
57 | Cc1ccc(C(=O)N(c2c(C)n(C)n(-c3ccccc3)c2=O)C(C)C)cc1 | 7.19
58 | CC(Cc1ccccc1)NC=O (centres unmarked) | 14.3
59 | CC(Cc1ccccc1Sc1ccccc1O)N(C)C.Cl (centres unmarked) | 3.67
60 | Cc1ccc(C(C)C)c(OCC(=O)NNC(=O)Cn2[nH]c(=O)c3ccccc3c2=O)c1 | 3.51
61 | CCOC(=O)C1(CCOc2ccccc2)CCN(CC2CC2)CC1 | -22.2
62 | O=C(COC(=O)c1ccc(O)cc1)Nc1cc(C(F)(F)F)ccc1Cl | 6.99
63 | Cc1ccc(CSc2nc3ccccc3c(=O)n2CCCC(=O)NCc2ccco2)cc1 | 1.62
64 | O=C(Nc1ccc(Cl)c(S(=O)(=O)N2CCOCC2)c1)C1CCC1 | 5.13
65 | Nc1nc(NCCCN2CCOCC2)nc(Nc2ccccc2)c1[N+](=O)[O-] | 5.04
66 | COc1ccc(N2CCN(C(=O)c3ccc(CS(=O)Cc4ccc(Cl)cc4)o3)CC2)cc1 (centres unmarked) | -4.74
67 | CC1CN=C(Nc2ccccc2)S1 (centres unmarked) | 18.3
68 | COc1cc(C(=O)Nc2ccc3c(c2)Cc2ccccc2-3)cc(OC)c1OC | 5.91
69 | O=C(c1cc(-c2ccc(Cl)c(Cl)c2)on1)N1CCN(c2ccccc2)CC1 | 6.15

Row | SMILES | hERG current change (%, negative = inhibition) at 1uM [%]
70 | CCSc1nc2sc3c(c2c(=O)[nH]1)CCCC3 | 12.9
71 | CCN(CC)CCOc1c(C)cccc1Cl | -11.9
72 | O=C(c1ccc2c(c1)OCO2)N1CCc2ccccc2C1 | 5.98
73 | O=C(CCC1CCCN(C(=O)Cn2cnnn2)C1)NCc1ccccc1F (centres unmarked) | 12.5
74 | O=C(COC(=O)CCC1CCCC1)Nc1ccc(Cl)cc1F | -2.67
75 | O=C(O)c1ccccc1N/N=C/c1c(Sc2nnnn2-c2ccccc2)nc2ccccn2c1=O | -14.9
76 | CCn1c(/N=C/c2ccc(OC)cc2O)nc2ccccc21 | 14
77 | COc1ccccc1CNC(=O)C1CC2Cn3c(nc4ccccc43)C2N1C (centres unmarked) | 4.97
78 | CC(C)(C)NS(=O)(=O)c1ccc(NS(=O)(=O)Cc2ccccc2)cc1 | 10
79 | Cc1ccc(NC(=O)CSCc2c(C)noc2C)cc1C | 2.62
80 | Cc1ccc(C(=O)Nc2ccon2)cc1S(=O)(=O)N1CCCCCC1 | -7.14
81 | Cc1ccc(C(=O)Nc2c(-c3cccs3)c(=O)c3ccccc3n2C)cc1 | -1.2
82 | O=C(NCC1CCCCC1)c1ccc(=O)[nH]c1 | 28
83 | CSCc1c(C(=O)OCC(=O)NC2CCCCC2)oc2ccccc12 | 7.46
84 | Cn1cnnc1SCC(=O)Nc1ccc(Cl)cc1 | 4.92
85 | CCSc1nc(O)cc(=O)[nH]1 | 16.4
86 | CC1CCCN(C(=O)C(=O)c2cn(CC(=O)N3CCCCCC3)c3ccccc23)C1 (centres unmarked) | 9.82
87 | CN(CC(=O)Nc1c(Cl)cccc1Cl)C(=O)CC1Sc2ccccc2NC1=O (centres unmarked) | 1.8
88 | COc1cc2c(cc1OC)C(c1cc(Br)ccc1O)N(C(C)=O)CC2 (centres unmarked) | 9.58
89 | O=C(NC1CCSC1=O)c1ccccc1 (centres unmarked) | 12.3
90 | Cc1cc(C)c(NC(=O)Nc2ccccc2C)c(Cl)c1 | 16.8
91 | CCn1c(SCC(=O)C(C)(C)C)nnc1-c1cccnc1 | 12.3
92 | CCCn1c(N)c(C(=O)CN(C)CC(=O)Nc2cccc(F)c2)c(=O)[nH]c1=O | -73.1
